The whole screen tested about 310,000 compounds, of which about 14,000 (4.5%) showed an effect of 50% or more. Effects have a minus sign here. The list shows a part of the results.
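Also: peak tail current of the secondary pulse compared with the same well before compound.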

The target in the experiment is human ether-à-go-go-related gene (hERG) potassium channel (human, UniProt Q12809). The experiment is described as follows: primary screen, population patch clamp on CHO cells stably expressing hERG.
Sequence of human ether-à-go-go-related gene (hERG) potassium channel (Q12809 whole entry, looked up): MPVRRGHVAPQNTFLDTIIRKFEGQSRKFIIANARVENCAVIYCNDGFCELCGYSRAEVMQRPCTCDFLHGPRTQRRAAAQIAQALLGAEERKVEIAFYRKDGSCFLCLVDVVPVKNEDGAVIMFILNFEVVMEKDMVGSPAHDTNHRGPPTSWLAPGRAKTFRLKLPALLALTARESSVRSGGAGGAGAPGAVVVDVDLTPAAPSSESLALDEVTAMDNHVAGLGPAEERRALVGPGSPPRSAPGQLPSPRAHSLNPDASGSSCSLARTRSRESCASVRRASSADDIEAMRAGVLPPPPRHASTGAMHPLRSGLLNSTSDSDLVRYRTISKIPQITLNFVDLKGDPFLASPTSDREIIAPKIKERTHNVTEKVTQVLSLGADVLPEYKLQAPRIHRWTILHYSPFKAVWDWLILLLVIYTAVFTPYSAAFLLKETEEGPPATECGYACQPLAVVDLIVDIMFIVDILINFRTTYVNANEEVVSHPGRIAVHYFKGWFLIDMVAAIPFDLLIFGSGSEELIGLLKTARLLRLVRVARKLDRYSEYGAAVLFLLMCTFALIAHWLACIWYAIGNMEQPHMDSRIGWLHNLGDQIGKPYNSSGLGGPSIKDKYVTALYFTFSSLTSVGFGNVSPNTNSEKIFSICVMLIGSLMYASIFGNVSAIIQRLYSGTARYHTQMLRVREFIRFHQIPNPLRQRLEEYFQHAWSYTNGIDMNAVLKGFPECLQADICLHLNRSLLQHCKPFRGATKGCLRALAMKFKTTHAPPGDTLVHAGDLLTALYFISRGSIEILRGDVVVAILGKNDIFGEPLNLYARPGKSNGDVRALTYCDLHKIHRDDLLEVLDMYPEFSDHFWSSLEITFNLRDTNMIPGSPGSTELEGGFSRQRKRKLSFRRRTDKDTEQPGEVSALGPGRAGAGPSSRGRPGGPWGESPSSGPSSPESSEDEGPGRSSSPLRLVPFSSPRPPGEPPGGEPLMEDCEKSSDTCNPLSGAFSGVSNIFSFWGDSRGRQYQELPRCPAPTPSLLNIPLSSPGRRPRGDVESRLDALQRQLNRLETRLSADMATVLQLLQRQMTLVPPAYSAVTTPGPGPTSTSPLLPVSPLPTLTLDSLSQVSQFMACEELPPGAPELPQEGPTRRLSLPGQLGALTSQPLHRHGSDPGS
Take `O=C(NC1CCCC1)c1cc2c(=O)n3ccccc3nc2s1`: the “hERG current change (%, negative = inhibition) at 10uM” value is recorded as -9.33%.

As for `CCN(CC)C(=O)Cn1c(=O)n(CCCC(=O)NCc2ccccc2)c(=O)c2sccc21`, the “hERG current change (%, negative = inhibition) at 10uM” value is on record as 2.45%.

For the compound `Cc1cc(NC(=O)OC2CCCCC2)ccc1[N+](=O)[O-]`, the “hERG current change (%, negative = inhibition) at 10uM” value is recorded as 16.9%.

In the case of `O=C(NCCCNC(=O)c1ccccc1Br)c1ccccc1Br`, the “hERG current change (%, negative = inhibition) at 10uM” value was determined as 26%.

On to `CCCCOc1ccc(C(=O)NNC(=O)C2C3C=CC(C3)C2C(=O)O)cc1` (stereo not drawn), for which the “hERG current change (%, negative = inhibition) at 10uM” value is on record as 3.68%.

Regarding `O=C(CCn1c(=O)[nH]c2ccccc2c1=O)NCCSCc1ccccc1`, the “hERG current change (%, negative = inhibition) at 10uM” value stood at 3.64%.

As for `Cc1c(NC(=O)Nc2ccc(Cl)cc2)c(=O)n(-c2ccccc2)n1C`, the “hERG current change (%, negative = inhibition) at 10uM” value is 1.41%.

Take `COc1ccc(C2=NN(C(=O)CSc3nnc(-c4ccccc4F)o3)C(c3ccco3)C2)cc1` (stereo not drawn): the “hERG current change (%, negative = inhibition) at 10uM” value is on record as -3.64%.

Turning to `Cc1nnsc1C(=O)N1CCC(CO)(Cc2ccccc2Cl)CC1`, the “hERG current change (%, negative = inhibition) at 10uM” value is -3.85%.

Take `CCc1ccc(C2CC(c3ccc(C)cc3)Nc3nc(N)nn32)cc1` (stereo not drawn): the “hERG current change (%, negative = inhibition) at 10uM” value is recorded as 14.4%.

`COc1cc(OC)cc(C(=O)NCC(=O)N2CCC(C)CC2)c1`: the “hERG current change (%, negative = inhibition) at 10uM” value worked out at 17%.

For the compound `COC(=O)c1cccc(NC(=O)CN2CCN(Cc3ccccc3)CC2)c1`, the “hERG current change (%, negative = inhibition) at 10uM” value is -16%.

Regarding `CCOC(=O)Cc1c(C)nc2c(-c3cccc(Br)c3)c[nH]n2c1=O`, the “hERG current change (%, negative = inhibition) at 10uM” value is on record as -12.9%.

Take `CC1=CCC2C(=O)N(c3cccc(C(=O)N(C)C4CCCCC4)c3)C(=O)C2C1` (stereo not drawn): the “hERG current change (%, negative = inhibition) at 10uM” value is listed as -16.3%.

Consider `CC(C)CCNC(=O)COC(=O)/C=C/c1ccc2ccccc2n1`, for which the “hERG current change (%, negative = inhibition) at 10uM” value is 11.3%.

In the case of `CC1(C)C(Cl)C(=O)C(C(=O)c2ccccc2)C(=O)C1Cl` (stereo not drawn), the “hERG current change (%, negative = inhibition) at 10uM” value turned out to be 18.6%.

For `CCCC(=O)c1c[nH]c(C(=O)NCc2ccco2)c1`, the “hERG current change (%, negative = inhibition) at 10uM” value worked out at 7.74%.

Consider `Cc1ccc(C)n1-c1nc(=S)[nH][nH]1`, for which the “hERG current change (%, negative = inhibition) at 10uM” value was determined as 13.2%.

Consider `COc1ccc(CN2CCCC(C(=O)c3ccc(SC)cc3)C2)cc1Cn1cccn1` (stereo not drawn), for which the “hERG current change (%, negative = inhibition) at 10uM” value is reported as -80.3%.

For `CCOc1ccc(N=CC2=C(O)CC(c3ccco3)CC2=O)cc1` (stereo not drawn), the “hERG current change (%, negative = inhibition) at 10uM” value is -14%.

With `CC1CC(C)CN(CCOc2ccc(Br)cc2)C1.O=C(O)C(=O)O` (stereo not drawn), the “hERG current change (%, negative = inhibition) at 10uM” value is on record as -60.3%.

On to `COC(=O)C1=C(C)NC=C([N+](=O)[O-])C1c1ccc(OC)cc1` (stereo not drawn), for which the “hERG current change (%, negative = inhibition) at 10uM” value is -11.6%.

As for `CCC(=O)Nc1ccc(-c2cc3ccccc3oc2=O)cc1`, the “hERG current change (%, negative = inhibition) at 10uM” value amounted to 12%.

Regarding `COc1ccc(C(C)=O)cc1CN1C(=O)NC2(CCCC2)C1=O`, the “hERG current change (%, negative = inhibition) at 10uM” value amounted to 23.9%.

Turning to `Nc1nonc1-n1nnc(C(=O)N/N=C/c2cccc(Cl)c2)c1-c1cccs1`, the “hERG current change (%, negative = inhibition) at 10uM” value stood at 3.81%.

Take `O=C(NCc1ccccc1)c1ccc(S(=O)(=O)Nc2cccc(C(F)(F)F)c2)cc1`: the “hERG current change (%, negative = inhibition) at 10uM” value is reported as -3.04%.

With `COc1ccc(C2OC(=O)CC2C(=O)NC(C)C)cc1` (stereo not drawn), the “hERG current change (%, negative = inhibition) at 10uM” value was 5.9%.

As for `COC(=O)CSc1cc(C(=O)c2nccn2C)c2ccccc2n1`, the “hERG current change (%, negative = inhibition) at 10uM” value was 0.879%.

For `O=C(COc1ccc(Br)cc1)NCCO`, the “hERG current change (%, negative = inhibition) at 10uM” value stood at 14.7%.

Consider `CCOC(=O)N1CCN(C(=O)CSC2=NS(=O)(=O)c3cc(F)ccc3N2)CC1`, for which the “hERG current change (%, negative = inhibition) at 10uM” value turned out to be 11.6%.

In the case of `Cc1ccc(NS(=O)(=O)c2cccc(C(=O)NCCCN3CCCC3=O)c2)cc1`, the “hERG current change (%, negative = inhibition) at 10uM” value is recorded as -17.1%.

`O=c1c2c(nc3n1CCCCC3)sc1c(O)cccc12`: the “hERG current change (%, negative = inhibition) at 10uM” value was -19.5%.

`CCOCCCn1c(SCC(=O)N2CCOCC2)nc2ccccc2c1=O`: the “hERG current change (%, negative = inhibition) at 10uM” value is given as -36%.

With `C/C(=N/Nc1ccc(C)cc1)C1(C)N(O)C(C)(C)C(c2ccco2)=[N+]1[O-]` (stereo not drawn), the “hERG current change (%, negative = inhibition) at 10uM” value was -4.66%.

With `N/C(=N\OC(=O)c1cc([N+](=O)[O-])ccc1Cl)c1ccccn1`, the “hERG current change (%, negative = inhibition) at 10uM” value is 3.99%.

In the case of `COC(=O)C(CC(=O)c1ccc(Cl)cc1)c1ccc(C)cc1` (stereo not drawn), the “hERG current change (%, negative = inhibition) at 10uM” value stood at 1.42%.

With `CN(C)CCN(Cc1ccco1)S(=O)(=O)c1csc(C(N)=O)c1`, the “hERG current change (%, negative = inhibition) at 10uM” value turned out to be 7.29%.

For the compound `COC(=O)c1ccccc1NC(=O)Cn1c(=O)n(CCC(=O)NC2CCN(Cc3ccccc3)CC2)c(=O)c2ccccc21`, the “hERG current change (%, negative = inhibition) at 10uM” value is -34.8%.

Turning to `c1cncc(COC2CCCN(Cc3nc(-c4cccs4)no3)C2)c1` (stereo not drawn), the “hERG current change (%, negative = inhibition) at 10uM” value is reported as -2.12%.

Take `CCCCn1c(N)c(N(CCC(C)C)C(=O)CSc2nncn2-c2ccccc2)c(=O)[nH]c1=O`: the “hERG current change (%, negative = inhibition) at 10uM” value stood at 15.6%.

As for `C/C=C1\COC(C(=O)NCc2ccncc2)(C(F)(F)F)C=C1C=C1CCCCC1` (stereo not drawn), the “hERG current change (%, negative = inhibition) at 10uM” value is listed as -27.9%.

`CCn1c(=NC(=O)CS(=O)(=O)c2ccc(F)cc2)sc2cccc(OC)c21`: the “hERG current change (%, negative = inhibition) at 10uM” value was -11%.

On to `CCOc1ccc(NC(C)C(=O)N/N=C/c2cccs2)cc1` (stereo not drawn), for which the “hERG current change (%, negative = inhibition) at 10uM” value is listed as 7.02%.

As for `CC(C)CCN(C(=O)Nc1ccc(Cl)cc1)C1CCN(C(C)C)CC1`, the “hERG current change (%, negative = inhibition) at 10uM” value is given as -72.1%.

As for `O=C(c1ccccc1)c1cccc(C(=O)c2ccccc2)c1`, the “hERG current change (%, negative = inhibition) at 10uM” value is -6.3%.

For the compound `Cc1ccccc1N1CC(C(=O)Nc2ccc3c(c2)OCO3)CC1=O` (stereo not drawn), the “hERG current change (%, negative = inhibition) at 10uM” value was -13.2%.

On to `COc1ccccc1NS(=O)(=O)c1cc(NC(=O)c2cccs2)ccc1N1CCOCC1`, for which the “hERG current change (%, negative = inhibition) at 10uM” value was 10.2%.

For `Cc1ccc(C(=O)Nc2nccc(-c3cccs3)n2)cc1`, the “hERG current change (%, negative = inhibition) at 10uM” value is reported as -47.5%.

In the case of `COc1ccc(-c2ccnc(SCC(=O)Nc3ccccn3)n2)cc1`, the “hERG current change (%, negative = inhibition) at 10uM” value amounted to 3.26%.

For `COc1ccc(-c2nc(CS(=O)CC(=O)N3CCN(C)CC3)c(C)o2)cc1OC` (stereo not drawn), the “hERG current change (%, negative = inhibition) at 10uM” value is reported as -2.26%.

With `COCc1nn2c(N)c(-c3ccccc3)cnc2c1-c1ccccc1`, the “hERG current change (%, negative = inhibition) at 10uM” value is listed as 20.8%.

As for `CC(=O)Nc1ccc(S(=O)(=O)NCc2nc(-c3ccc(C)cc3)no2)cc1`, the “hERG current change (%, negative = inhibition) at 10uM” value is recorded as 14.8%.

Consider `COCCCn1c(N)c(C(=O)OCCOC)c2nc3ccccc3nc21`, for which the “hERG current change (%, negative = inhibition) at 10uM” value is given as -5.84%.

On to `Cc1cccc(-c2nnc(SCc3ccccc3)o2)c1`, for which the “hERG current change (%, negative = inhibition) at 10uM” value is reported as -4.45%.

Regarding `CSc1ccc(S(=O)(=O)N2CCC(C(=O)NCC3CCCO3)CC2)cc1` (stereo not drawn), the “hERG current change (%, negative = inhibition) at 10uM” value was -7.63%.

As to `Cc1cccc(C(=O)NNC(=O)c2c(O)c3ccccc3n(C)c2=O)c1`, the “hERG current change (%, negative = inhibition) at 10uM” value is listed as -0.855%.

Turning to `Cc1cc(OCC(=O)N2CCC(O)CC2)c2c(C)cc(=O)oc2c1`, the “hERG current change (%, negative = inhibition) at 10uM” value was 17.5%.
